Changes are numbered by the printed parent chain. Where two headings read alike, the source gives them in different places. No constants are given. Whether binding was seen depends on the method and setting. In cells and extracts the contact can be indirect. Some results given as binding are weak or reduced against the parent protein; the word gives no strength. Tags and fused reporters may be left off the sequences shown. One block for each molecule: values may come before it.
How the values were obtained:
myc-FAAP20 P49A = molecular target: T1, myc-FAAP20 P49A (UniProt Q6NZ36); assay: co-IP; 293T cells transiently transfected, lysed in NETN150; anti-c-Myc agarose affinity gel 4 h, five washes; anti-HA WB; where indicated co-expression of PIN1, 50 nM okadaic acid and 10 μM MG132 for 6 h
T1 sequence: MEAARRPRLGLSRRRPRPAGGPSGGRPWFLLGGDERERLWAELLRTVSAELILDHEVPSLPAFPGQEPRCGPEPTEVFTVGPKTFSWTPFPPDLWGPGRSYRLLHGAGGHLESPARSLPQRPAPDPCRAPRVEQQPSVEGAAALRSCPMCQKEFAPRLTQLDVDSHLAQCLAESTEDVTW

The chains behind the UniProt entries cited, without tags or fusion partners.
UniProt Q969H0: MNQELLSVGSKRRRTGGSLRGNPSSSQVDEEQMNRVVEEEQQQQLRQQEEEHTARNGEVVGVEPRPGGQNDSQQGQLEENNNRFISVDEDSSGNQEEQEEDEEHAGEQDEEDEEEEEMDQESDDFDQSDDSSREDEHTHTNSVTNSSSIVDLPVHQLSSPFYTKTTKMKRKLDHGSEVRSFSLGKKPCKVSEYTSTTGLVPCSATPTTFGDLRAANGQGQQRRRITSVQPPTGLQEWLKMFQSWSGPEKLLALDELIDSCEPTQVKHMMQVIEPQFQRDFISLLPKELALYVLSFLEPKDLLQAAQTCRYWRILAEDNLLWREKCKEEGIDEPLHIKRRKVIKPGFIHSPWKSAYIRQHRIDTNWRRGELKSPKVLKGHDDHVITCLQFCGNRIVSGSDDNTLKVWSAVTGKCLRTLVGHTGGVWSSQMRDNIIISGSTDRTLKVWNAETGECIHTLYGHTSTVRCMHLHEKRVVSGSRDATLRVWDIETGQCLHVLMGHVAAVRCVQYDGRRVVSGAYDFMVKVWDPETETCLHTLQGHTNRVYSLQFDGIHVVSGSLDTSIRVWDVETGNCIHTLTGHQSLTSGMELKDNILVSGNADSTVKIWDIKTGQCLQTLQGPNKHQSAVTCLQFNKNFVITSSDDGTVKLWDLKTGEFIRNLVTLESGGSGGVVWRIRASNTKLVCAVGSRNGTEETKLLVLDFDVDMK
UniProt Q15172: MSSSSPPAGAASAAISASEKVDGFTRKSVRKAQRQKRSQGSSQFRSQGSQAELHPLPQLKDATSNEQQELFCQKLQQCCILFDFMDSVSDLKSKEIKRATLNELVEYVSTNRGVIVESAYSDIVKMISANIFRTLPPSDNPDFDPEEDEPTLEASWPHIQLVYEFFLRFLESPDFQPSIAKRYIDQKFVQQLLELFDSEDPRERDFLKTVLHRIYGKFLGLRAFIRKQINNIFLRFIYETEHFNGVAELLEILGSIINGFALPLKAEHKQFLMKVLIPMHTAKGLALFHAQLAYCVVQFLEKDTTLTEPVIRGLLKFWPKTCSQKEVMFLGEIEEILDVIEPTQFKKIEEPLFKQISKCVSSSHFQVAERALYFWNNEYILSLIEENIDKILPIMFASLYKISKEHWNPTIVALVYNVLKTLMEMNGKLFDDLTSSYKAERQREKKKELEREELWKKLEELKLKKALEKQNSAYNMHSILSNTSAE
UniProt P49841: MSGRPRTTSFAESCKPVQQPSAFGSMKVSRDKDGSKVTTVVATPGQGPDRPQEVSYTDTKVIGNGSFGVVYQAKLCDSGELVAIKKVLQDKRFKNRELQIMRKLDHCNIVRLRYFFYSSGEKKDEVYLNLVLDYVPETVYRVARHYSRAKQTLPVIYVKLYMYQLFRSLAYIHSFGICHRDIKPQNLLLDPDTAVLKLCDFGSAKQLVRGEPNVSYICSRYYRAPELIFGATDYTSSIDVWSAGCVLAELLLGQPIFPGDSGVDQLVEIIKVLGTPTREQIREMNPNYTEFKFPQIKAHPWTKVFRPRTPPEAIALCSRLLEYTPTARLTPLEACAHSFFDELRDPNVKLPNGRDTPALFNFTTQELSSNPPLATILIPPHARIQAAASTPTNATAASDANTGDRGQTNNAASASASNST

myc-FAAP20 WT = molecular target: T2, myc-FAAP20 WT (UniProt Q6NZ36); assay: as above
T2 sequence: T1 sequence with A49P

[1] = molecular target: T3, Flag-FAAP20 WLR (W40A, L44Q, R45A) (293T cells) (UniProt Q6NZ36); assay: co-IP; 293T cells transiently transfected, lysed in NETN150 (1% NP40, 150 mM NaCl, 0.1 mM EDTA, 50 mM Tris pH 7.5) with protease and phosphatase inhibitors; anti-Flag M2 affinity gel 4 h, five washes; WB of HA-tagged or endogenous partner
T3 sequence: T1 sequence with W40A, L44Q, R45A, A49P

[2] = molecular target: T4, Flag-FAAP20 WT (293T cells) (UniProt Q6NZ36); assay: as above
T4 sequence: T1 sequence with A49P

[3] = molecular target: T5, Flag-FAAP20 P49A (293T cells) (UniProt Q6NZ36); assay: as above
T5 sequence: T1 sequence

[4] = molecular target: T6, Flag-FAAP20 S48A (293T cells) (UniProt Q6NZ36); assay: as above
T6 sequence: T1 sequence with S48A, A49P

[5] = molecular target: T3, Flag-FAAP20 WLR (W40A, L44Q, R45A) (293T cells); assay: as above; remark: listed apart in the source
[6] = molecular target: T4, Flag-FAAP20 WT (293T cells); assay: as above; remark: listed apart in the source
[7] = molecular target: T7, Flag-FAAP20 ΔN30 (a.a.1-30 deletion) (UniProt Q6NZ36); assay: as above
T7 sequence: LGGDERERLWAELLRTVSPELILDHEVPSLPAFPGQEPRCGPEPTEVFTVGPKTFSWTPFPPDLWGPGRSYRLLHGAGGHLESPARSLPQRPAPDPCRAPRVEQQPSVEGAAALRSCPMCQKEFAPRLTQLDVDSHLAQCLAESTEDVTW

binding (myc-FAAP20 P49A): binds
binding (myc-FAAP20 WT): binds
Molecule: HA-FBW7 (from UniProt Q969H0 1-707)

binding [1]: binds
binding [2]: binds
Molecule: HA-B56α (from UniProt Q15172 1-486)

binding [1]: binds
binding [2]: binds
Molecule: HA-GSKβ (from UniProt P49841 1-420) (enzyme)

binding [3]: binds
binding [4]: binds
binding [5]: no binding
binding [6]: binds
binding [7]: binds
B1: endogenous FANCA (protein, UniProt O15360 1-1455)
chain: MSDSWVPNSASGQDPGGRRRAWAELLAGRVKREKYNPERAQKLKESAVRLLRSHQDLNALLLEVEGPLCKKLSLSKVIDCDSSEAYANHSSSFIGSALQDQASRLGVPVGILSAGMVASSVGQICTAPAETSHPVLLTVEQRKKLSSLLEFAQYLLAHSMFSRLSFCQELWKIQSSLLLEAVWHLHVQGIVSLQELLESHPDMHAVGSWLFRNLCCLCEQMEASCQHADVARAMLSDFVQMFVLRGFQKNSDLRRTVEPEKMPQVTVDVLQRMLIFALDALAAGVQEESSTHKIVRCWFGVFSGHTLGSVISTDPLKRFFSHTLTQILTHSPVLKASDAVQMQREWSFARTHPLLTSLYRRLFVMLSAEELVGHLQEVLETQEVHWQRVLSFVSALVVCFPEAQQLLEDWVARLMAQAFESCQLDSMVTAFLVVRQAALEGPSAFLSYADWFKASFGSTRGYHGCSKKALVFLFTFLSELVPFESPRYLQVHILHPPLVPGKYRSLLTDYISLAKTRLADLKVSIENMGLYEDLSSAGDITEPHSQALQDVEKAIMVFEHTGNIPVTVMEASIFRRPYYVSHFLPALLTPRVLPKVPDSRVAFIESLKRADKIPPSLYSTYCQACSAAEEKPEDAALGVRAEPNSAEEPLGQLTAALGELRASMTDPSQRDVISAQVAVISERLRAVLGHNEDDSSVEISKIQLSINTPRLEPREHMAVDLLLTSFCQNLMAASSVAPPERQGPWAALFVRTMCGRVLPAVLTRLCQLLRHQGPSLSAPHVLGLAALAVHLGESRSALPEVDVGPPAPGAGLPVPALFDSLLTCRTRDSLFFCLKFCTAAISYSLCKFSSQSRDTLCSCLSPGLIKKFQFLMFRLFSEARQPLSEEDVASLSWRPLHLPSADWQRAALSLWTHRTFREVLKEEDVHLTYQDWLHLELEIQPEADALSDTERQDFHQWAIHEHFLPESSASGGCDGDLQAACTILVNALMDFHQSSRSYDHSENSDLVFGGRTGNEDIISRLQEMVADLELQQDLIVPLGHTPSQEHFLFEIFRRRLQALTSGWSVAASLQRQRELLMYKRILLRLPSSVLCGSSFQAEQPITARCEQFFHLVNSEMRNFCSHGGALTQDITAHFFRGLLNACLRSRDPSLMVDFILAKCQTKCPLILTSALVWWPSLEPVLLCRWRRHCQSPLPRELQKLQEGRQFASDFLSPEAASPAPNPDWLSAAALHFAIQQVREENIRKQLKKLDCEREELLVFLFFFSLMGLLSSHLTSNSTTDLPKAFHVCAAILECLEKRKISWLALFQLTESDLRLGRLLLRVAPDQHTRLLPFAFYSLLSYFHEDAAIREEAFLHVAVDMYLKLVQLFVAGDTSTVSPPAGRSLELKGQGNPVELITKARLFLLQLIPRCPKKSFSHVAELLADRGDCDPEVSAALQSRQQAAPDADLSQEPHLF

— publication PMC6400411
